Experimental data: the supplement of paper PMC3334620
Over roughly 33,000 sequences, “E-score (-0.5 to 0.5)” has its median near -0.053; the highest 2% begin near 0.37. The list shows a part of the results.

target: Hap1 (UniProt P0CE41); experiment: PBM E-score (8-mer binding enrichment) (E-score (-0.5 to 0.5)); higher = stronger / more preferred TF binding; most listed sequences are background and not binding sites; settings: protein concentration: 200 nM; construct: GST-DNA-binding domain
Procedure: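 Universal 'all 10-mer' protein binding microarrays (Agilent AMADID 015681) probed with GST-tagged S. cerevisiae TFs (full-length or DBD) made by in vitro transcription/translation (PURExpress), about 100-200 nM. Bound TF was detected with fluorescent anti-GST. Each ungapped 8-mer (which stands for itself and its reverse complement) is scored by the PBM enrichment score (E-score), a modified Wilcoxon-Mann-Whitney statistic from -0.5 to +0.5, computed with the Universal PBM Analysis Suite. Scale: above 0.35 generally sequence-specific binding.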

Chain of UniProt P0CE41 (P0CE41 whole entry, the tested form may be a part): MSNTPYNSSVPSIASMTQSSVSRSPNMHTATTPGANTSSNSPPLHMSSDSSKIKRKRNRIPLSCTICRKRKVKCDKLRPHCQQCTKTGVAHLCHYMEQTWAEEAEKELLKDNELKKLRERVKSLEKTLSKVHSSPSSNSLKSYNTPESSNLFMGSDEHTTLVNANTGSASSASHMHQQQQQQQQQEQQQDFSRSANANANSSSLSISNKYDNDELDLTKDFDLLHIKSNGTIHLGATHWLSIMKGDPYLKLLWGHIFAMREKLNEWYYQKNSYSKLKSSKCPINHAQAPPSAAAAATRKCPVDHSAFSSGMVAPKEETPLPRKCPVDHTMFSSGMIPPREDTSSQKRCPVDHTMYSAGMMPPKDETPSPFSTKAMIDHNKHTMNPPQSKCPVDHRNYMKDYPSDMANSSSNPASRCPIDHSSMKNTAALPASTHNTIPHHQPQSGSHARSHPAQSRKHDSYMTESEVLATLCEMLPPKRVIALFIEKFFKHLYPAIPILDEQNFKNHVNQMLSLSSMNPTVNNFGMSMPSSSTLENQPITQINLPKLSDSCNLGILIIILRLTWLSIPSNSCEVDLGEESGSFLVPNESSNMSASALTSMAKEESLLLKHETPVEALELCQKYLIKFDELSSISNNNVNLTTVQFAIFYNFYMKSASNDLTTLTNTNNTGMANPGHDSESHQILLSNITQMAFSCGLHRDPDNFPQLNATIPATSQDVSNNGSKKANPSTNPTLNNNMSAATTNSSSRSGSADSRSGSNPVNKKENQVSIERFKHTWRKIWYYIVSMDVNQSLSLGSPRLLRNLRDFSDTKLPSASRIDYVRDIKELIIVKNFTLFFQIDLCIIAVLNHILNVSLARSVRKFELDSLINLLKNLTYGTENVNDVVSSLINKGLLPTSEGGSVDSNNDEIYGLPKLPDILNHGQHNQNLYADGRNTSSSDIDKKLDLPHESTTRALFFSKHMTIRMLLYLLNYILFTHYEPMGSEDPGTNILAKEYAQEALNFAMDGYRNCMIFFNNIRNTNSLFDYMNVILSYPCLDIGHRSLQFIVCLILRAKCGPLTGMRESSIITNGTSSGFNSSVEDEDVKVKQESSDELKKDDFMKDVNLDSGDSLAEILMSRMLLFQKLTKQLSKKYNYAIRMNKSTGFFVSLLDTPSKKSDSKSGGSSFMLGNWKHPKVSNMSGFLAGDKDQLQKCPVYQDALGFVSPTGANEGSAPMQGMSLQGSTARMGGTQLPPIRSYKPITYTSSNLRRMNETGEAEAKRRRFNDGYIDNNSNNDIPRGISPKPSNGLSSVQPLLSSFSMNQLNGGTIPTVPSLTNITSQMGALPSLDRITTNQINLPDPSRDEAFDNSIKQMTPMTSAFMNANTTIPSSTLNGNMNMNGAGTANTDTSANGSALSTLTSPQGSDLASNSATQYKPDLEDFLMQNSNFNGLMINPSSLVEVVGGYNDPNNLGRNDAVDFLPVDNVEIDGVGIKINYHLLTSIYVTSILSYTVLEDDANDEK

| Sequence | PBM E-score |
| --- | --- |
| GAAGATGC | -0.137 |
| ACGCGGTG | 0.0771 |
| AATACAAA | 0.00742 |
| CCGATATC | 0.458 |
| AAGGGCTG | -0.206 |
| CGCCAAAC | -0.00241 |
| GAACCTAA | 0.125 |
| GGAGGGAA | 0.0256 |
| CAGACAGG | -0.12 |
| GGCGATCA | 0.0275 |
| AGATTGGA | -0.12 |
| CCTATACC | 0.0436 |
| ATTACGTC | -0.00167 |
| CGCATAAC | 0.0442 |
| AACTTGCT | -0.0947 |
| TATTCCGA | 0.357 |
| ACCTGGAG | -0.129 |
| TACTGCAA | -0.113 |
| GACTTCCC | -0.082 |
| CGAAACAC | 0.0343 |
| GCTCGACA | -0.348 |
| CAGGCCTC | -0.24 |
| CACGATTC | 0.0362 |
| AACAAGGC | -0.224 |

| Sequence | PBM E-score |
| --- | --- |
| AGATGCTA | -0.122 |
| ACACGTGG | -0.174 |
| ATGACAGG | -0.207 |
| AAATGCAT | 0.0115 |
| CTGTCGGA | 0.23 |
| AACATGGG | 0.00616 |
| GGCATAAC | -0.0753 |
| ACAAGTCA | -0.216 |
| TACAGTGA | -0.289 |
| CCAATCGC | -0.0737 |
| AGCAAGGC | -0.134 |
| ACCCTTGG | -0.108 |
| TCCAGCCA | -0.17 |
| TGCAGGCA | -0.237 |
| CTAGAGGC | -0.266 |
| CCGTCTCG | 0.176 |
| GTGCCGGA | 0.406 |
| AACCACTA | -0.244 |
| GCTTAACC | -0.0526 |
| GGACGGGA | 0.145 |
| GAGTAAGA | 0.0219 |
| ATCACGGC | 0.134 |
| GTTCCTGA | -0.242 |
| AATATGAT | -0.0387 |

| Sequence | PBM E-score |
| --- | --- |
| AGTGACGC | 0.0181 |
| CGCTTTTA | 0.273 |
| ACGATCGA | -0.12 |
| AGTGCAGC | -0.0508 |
| GACCAACA | 0.0331 |
| ATAGAAGA | -0.137 |
| ACATAGGT | -0.216 |
| GCATCATA | -0.128 |
| TCATAGAA | -0.0525 |
| GACGATAC | 0.0839 |
| GAAAGTAC | -0.014 |
| AGAGCCCC | -0.0378 |
| CCACATAC | -0.127 |
| ACACTTGA | -0.275 |
| CCTACGCC | -0.195 |
| AGAGCGAG | 0.0379 |
| ACACACCA | -0.281 |
| GTAGACGA | -0.353 |
| ATCACGCC | 0.0803 |
| CCGAGCCA | 0.347 |
| ATATTGGA | -0.0614 |
| TCAGGAAA | -0.209 |
| CTCGGTCA | 0.342 |
| AAGTGATC | -0.139 |

| Sequence | PBM E-score |
| --- | --- |
| GATTACGC | 0.0802 |
| ACCCGGGG | 0.306 |
| TAGTGGGA | -0.0386 |
| AGACAATA | 0.0156 |
| CATTATCA | -0.162 |
| ACCGCTAA | 0.217 |
| AGCGAAAG | -0.125 |
| AATTTAAT | -0.118 |
| GCGAGAGC | 0.0138 |
| GCAAATGA | -0.0534 |
| CAAATGCA | -0.261 |
| AATTTGCT | 0.033 |
| TAGTATGA | -0.0439 |
| CGAAAGAG | 0.0191 |
| GAAAGCGA | -0.0815 |
| AACTGCTA | -0.143 |
| AGCCTCTG | -0.228 |
| ACATCCAT | -0.093 |
| GATCTAGA | -0.054 |
| AACTAAGA | 0.0438 |
| CCCAAAGA | -0.0865 |
| CAGGTGTC | -0.025 |
